# Reference: the supplement of paper PMC3334620
# Over roughly 33,000 sequences, “E-score (-0.5 to 0.5)” has its median near -0.035; the highest 2% begin near 0.34. The list shows a part of the results.
# Molecular target: T1, Mot3 (UniProt P54785)
# T1 sequence: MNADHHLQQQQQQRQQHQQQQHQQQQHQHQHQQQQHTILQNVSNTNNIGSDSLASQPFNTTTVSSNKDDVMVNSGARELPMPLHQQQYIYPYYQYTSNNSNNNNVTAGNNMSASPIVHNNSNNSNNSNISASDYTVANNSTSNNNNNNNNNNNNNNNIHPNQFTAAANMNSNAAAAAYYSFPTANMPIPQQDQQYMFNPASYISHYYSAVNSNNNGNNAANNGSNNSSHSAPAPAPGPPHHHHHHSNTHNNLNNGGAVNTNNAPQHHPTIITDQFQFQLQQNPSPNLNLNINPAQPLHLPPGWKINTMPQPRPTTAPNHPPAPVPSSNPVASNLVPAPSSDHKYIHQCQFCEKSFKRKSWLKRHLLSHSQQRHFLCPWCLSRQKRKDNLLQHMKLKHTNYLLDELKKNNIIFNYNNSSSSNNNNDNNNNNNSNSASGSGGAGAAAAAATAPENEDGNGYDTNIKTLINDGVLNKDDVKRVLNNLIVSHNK
# Assay: PBM E-score (8-mer binding enrichment) (E-score (-0.5 to 0.5)); higher = stronger / more preferred TF binding; most listed sequences are background and not binding sites
# Conditions: protein concentration: 200 nM; construct: GST-full length
# Outline: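 Detection of bound protein used fluorescent anti-GST, with scans normalised by masliner. The proteins were GST-tagged yeast transcription factors applied at about 100-200 nM to universal all-10-mer Agilent arrays made double-stranded by primer extension. Each ungapped eight-base word, pooled with its reverse complement, was scored with an E-score from the Universal PBM Analysis Suite.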
row,Sequence,PBM E-score
1,CCCCTCAC,-0.199
2,CCTAGGAC,-0.0674
3,GAGTCAGC,-0.084
4,GCGATGCC,-0.0132
5,GTGAGCAA,-0.205
6,ATTCACAC,0.215
7,GCTACGCA,-0.00801
8,AAGAGCGT,-0.107
9,AGACATGA,0.198
10,GGAACTTA,0.0691
11,GCTTCTGA,-0.232
12,ATTGGGGC,-0.168
13,AAGGCCCG,0.111
14,AGCATATG,-0.00234
15,AAGATAGG,0.0717
16,ACAAATCG,-0.101
17,ACACATTG,0.142
18,ACGAACAT,0.109
19,CGCTGTAA,0.159
20,CCGGGACG,-0.279
21,CATCTCCA,-0.0528
22,ATTTTCGG,-0.163
23,ATTGACTG,-0.0528
24,TTATACAA,0.21
25,GGCCTCCC,-0.302

row,Sequence,PBM E-score
1,ACTCCCAT,-0.0065
2,ACTGCAGT,-0.211
3,AGGGCCAG,-0.21
4,TGCTTCCA,-0.00836
5,AGAATTCA,-0.0728
6,CTTCTGGA,-0.172
7,ACATCCGC,0.0826
8,ATCAGCCG,-0.244
9,TGGGAGAA,-0.151
10,ACTCCCAG,-0.198
11,ACAGGATG,0.00887
12,CATCCGAC,-0.146
13,ACAGGAGA,-0.0281
14,GTCATCTA,0.191
15,GACATGCC,0.256
16,AGAAATCT,-0.0655
17,GGGATTAA,0.0843
18,ATAAGGAA,0.299
19,CAATAGCG,-0.0682
20,CTATTAAC,0.301
21,GTGTTGCA,0.0418
22,AGCCCTAC,-0.00626
23,ACTCGGCC,-0.0939
24,AACTCCCG,0.00241
25,TTACTCAA,0.215

row,Sequence,PBM E-score
1,CATGCCAA,0.14
2,ATGAAAGA,-0.0332
3,ATGCATAC,0.12
4,CTTCCCCC,-0.31
5,AAAGCGCA,-0.133
6,CTAAAATA,0.036
7,AAATAATC,0.162
8,ACGCGTTC,0.235
9,TGGGCAAA,-0.0148
10,CGACTCCG,-0.293
11,CCACGAAA,-0.0721
12,CCCTCCCG,-0.318
13,GAGCCATC,-0.22
14,ACTTGATA,0.0522
15,CTGCGCCC,-0.348
16,CCTTTACC,0.102
17,CGATTGCG,-0.128
18,ACAAAACA,0.211
19,CCGGACGC,0.144
20,AGCCATAG,-0.0266
21,AGTGGTGA,-0.246
22,GTTAGTAA,0.0859
23,AAGACTTG,0.121
24,AGTTGCAG,-0.139
25,ATGTAGTG,0.255

row,Sequence,PBM E-score
1,CTCACAGA,-0.0257
2,GTTATAAA,0.234
3,CAACTCTA,-0.124
4,CGGAGATC,-0.358
5,CGCTACAA,0.087
6,ACCTTATG,0.0112
7,GTCAATAA,0.00788
8,TATGATGA,-0.177
9,AAGTAATG,0.0523
10,AAGCGATA,-0.13
11,CGGACGGC,-0.222
12,AATGCTAG,0.00844
13,AGTTCGCC,-0.0522
14,ATGTGGCA,-0.205
15,CCGGGCCA,-0.364
16,ATAAATAC,0.159
17,GTAAAGCA,0.25
18,AGATCTAC,0.0591
19,ATAGATGC,-0.15
20,CAGTCGGA,-0.259
21,AAGTTTTG,0.167
22,CGAAACGA,-0.0279
23,GCGGGCGA,-0.19
24,CTGAGTGC,-0.0909
25,CTTGGTTA,0.0291

row,Sequence,PBM E-score
1,CTACTAAA,-0.115
2,GACCCGTA,-0.0718
3,ATATCCTA,-0.0436
4,ACGTGCGG,-0.0607
5,CTCTTCTA,-0.117
6,GAATCTCA,-0.136
7,CTCAGATC,-0.248
8,GAAGGTAA,0.397
9,GGATTTAC,0.174
10,CCCCACGG,-0.224
11,AGCCACTA,-0.272
12,CGGTCATC,-0.228
13,AAAATGGG,-0.00493
14,CACATTAC,0.277
15,AGCTCGGC,-0.158
16,AGCTACTC,-0.11
17,GCTACATA,0.102
18,CCACGACC,-0.285
19,CACTATAG,-0.0956
20,GAGAAGGA,-0.0391
21,ATACGCAC,0.164
22,ATCGTCCA,-0.201
23,GGCGTCGA,-0.117
24,AGCCTGAT,0.183
25,CTCAGACA,0.0498

row,Sequence,PBM E-score
1,AATCATTG,0.0428
2,CCGACCTC,-0.289
3,TGTGGGAA,-0.0508
4,ACGCCGTC,-0.13
5,AAGAACTG,-0.196
6,ACTAATGC,0.0519
7,AGCCTCGG,-0.259
8,ACGCGCGT,0.289
9,AAAGGGCT,-0.186
10,AGATGTCA,-0.0293
11,ACGTACAC,0.259
12,TATTATAA,0.167
13,CAGGCTCA,0.392
14,GGTGATCA,-0.249
15,AAGCTCCC,-0.279
16,GGTTATGA,0.121
17,GCCCCGAC,-0.253
18,CGTACACC,0.0546
19,GGCTAAGA,-0.24
20,AGCGCCGG,-0.217
21,AACCAGTT,0.148
22,ACGGAGTA,-0.118
23,AGACATTG,-0.113
24,TACTGAAA,0.037
25,ATTCCCTA,-0.0741

row,Sequence,PBM E-score
1,AAGCGCCA,-0.129
2,CCTTTTCA,0.0956
3,CACCCGAC,0.0141
4,CTGGCGTC,-0.167
5,ACTTCAAT,0.183
6,ATTGTTGC,0.266
7,AGTCCAAA,-0.115
8,CCACAGGA,0.0479
9,AAGAGCCC,-0.24
10,TACACCAA,0.00253
11,CCAAAACG,-0.0187
12,ACAGTTTC,0.0445
13,ATGTCGGC,-0.0944
14,TACCAAGA,-0.00408
15,CCCCAGCA,-0.158
16,GCAGTTGA,-0.0889
17,AACTGCCC,-0.249
18,TCGCAGAA,-0.204
19,AGGCCACT,0.0259
20,AATAGTCT,-0.0921
21,GCGCACGA,-0.0702
22,GGATATCA,-0.0793
